Source: PMC4445002, “Efficient inhibition of tumor angiogenesis and growth by a synthetic peptide blocking S100A4-methionine aminopeptidase 2 interaction” (Molecular Therapy. Methods & Clinical Development, 2015)
These are yes or no findings as the source states them, for the method shown. For part of these data: Binding seen in cells or lysates may run through a third protein. Some binding calls cover weakened binding; strength is not graded here. Values belong to the substance of their own block, whether it stands above or below them.

Sequences of proteins named here, by UniProt entry; tags and fusion partners are left off. A change or cut given only in a name is not applied to a line headed by its entry.
UniProt P07091: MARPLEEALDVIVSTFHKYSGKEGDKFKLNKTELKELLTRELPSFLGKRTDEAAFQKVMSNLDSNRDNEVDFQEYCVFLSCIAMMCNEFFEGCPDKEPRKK
UniProt O08663: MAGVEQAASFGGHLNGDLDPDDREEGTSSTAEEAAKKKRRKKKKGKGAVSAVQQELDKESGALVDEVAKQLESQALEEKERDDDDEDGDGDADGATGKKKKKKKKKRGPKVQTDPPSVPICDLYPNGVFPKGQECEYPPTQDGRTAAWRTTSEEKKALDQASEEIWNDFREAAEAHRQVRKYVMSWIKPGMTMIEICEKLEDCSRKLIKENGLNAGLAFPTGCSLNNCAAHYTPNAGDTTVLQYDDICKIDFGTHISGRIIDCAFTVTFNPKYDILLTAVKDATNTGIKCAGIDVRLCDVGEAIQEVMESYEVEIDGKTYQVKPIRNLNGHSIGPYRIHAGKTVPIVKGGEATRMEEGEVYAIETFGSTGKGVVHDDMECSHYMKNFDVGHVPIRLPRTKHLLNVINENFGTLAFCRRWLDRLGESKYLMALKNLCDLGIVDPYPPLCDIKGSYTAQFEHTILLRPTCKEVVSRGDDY

Tests used:
[1] = biological target: GST-S100A4 fusion protein (UniProt P07091); experiment: pull-down; in vitro GST pull-down: [35S]MetAP2 incubated with GST/S100A4 fusion protein in 1 mmol/l EDTA; only the target purified
[2] = biological target: GST-S100A4 fusion protein (UniProt P07091); experiment: pull-down; in vitro GST pull-down: [35S]MetAP2 incubated with GST/S100A4 fusion protein in 1 mmol/l CaCl2; with or without synthetic peptide at a 25-fold molar excess of MetAP2; only the target purified
[3] = biological target: GST-S100A4 fusion protein (UniProt P07091); experiment: condition: only without CaCl2 (SBD peptide 1 mmol/l); SPR; as a1 but running buffer without CaCl2; both purified
[4] = biological target: GST-S100A4 fusion protein (UniProt P07091); experiment: SPR; Biacore 3000, CM-5 chip; GST-S100A4 captured by immobilised goat anti-GST antibody (GST on the control cell, subtracted); SBD peptide 1 mmol/l injected in HBS-P (10 mmol/l Hepes pH 7.4, 150 mmol/l NaCl, 0.005% P20) with 1 mmol/l CaCl2, 25 °C, 5 minutes; both purified
[5] = biological target: EYFP-S100A4 (UniProt P07091); experiment: FRET or BRET; acceptor-photobleaching FRET between ECFP and EYFP fusions cotransfected into live HeLa cells, 24 hours after transfection, LSM710 confocal microscope
[6] = biological target: GST-S100A4 fusion protein (UniProt P07091); experiment: pull-down; competition in the GST pull-down: synthetic peptide at a 25-fold molar excess of [35S]MetAP2 added to GST/S100A4, 1 mmol/l CaCl2; both purified

binding [2]: binds
Substance: [35S]MetAP2 (methionine aminopeptidase 2) (from UniProt O08663 1-478)
binding [1]: no binding (condition: with 1 mmol/l EDTA)

binding [3]: no binding | binding [4]: binds
Substance: SBD peptide (S100A4 binding domain of MetAP2, residues 170-229) (from UniProt O08663 170-229)

binding [5]: binds
Substance: ECFP-NBD (from UniProt O08663 170-208) (domain or fragment)

binding [5]: binds
Substance: ECFP-SBD (from UniProt O08663 170-229) (domain or fragment)

binding [6]: binds
Substance: NBD peptide (N-terminal 39 residues of SBD, MetAP2 170-208) (from UniProt O08663 170-208)

binding [5]: no binding
Substance: ECFP-CBD (from UniProt O08663 192-229) (domain or fragment)

binding [5]: binds
Substance: ECFP-MetAP2 (from UniProt O08663 2-478)
